Results on 42 compounds are retold here after ChEMBL document CHEMBL4888484, “Replenishing the malaria drug discovery pipeline: Screening and hit evaluation of the MMV Hit Generation Library 1 (HGL1) against asexual blood stage Plasmodium falciparum ,using a nano luciferase reporter read-out” (2022).

Each structure is given as a SMILES string. Hit rate of the full screen: of about 150,000 compounds, about 540 (0.36%) showed an effect of 50% or more. Some of the results follow.

The subject of the experiment is Plasmodium falciparum. Kind of experiment: Primary screen in NF54 nanoGlo assay, in single point, at 2uM, 72h; a lower Z score goes with more inhibition. The class given is functional, Erythrocyte. The settings on record: timepoint 72 hour.
Consider `CC(C)C(=O)NCCn1nc(-c2ccc(F)cc2)n(C2CC2)c1=O`, for which the “% Inhibition” value was -13% and the Z score turned out to be 2.64.

`Cc1ccc(NC(=O)c2cnn3c2CCCC3)cc1`: the “% Inhibition” value was -5% and the Z score was 0.86.

Regarding `Cc1csc(C(=O)N2CCN(c3ncc(F)cn3)C(=O)C2)c1`, the “% Inhibition” value is 6% and the Z score is listed as -1.07.

On to `COc1cc(-c2nc(CN(Cc3cccnc3)C[C@@H]3CCC(=O)N3)c(C)o2)cc2c1OCO2`, for which the “% Inhibition” value was -6% and the Z score was determined as 0.98.

For the compound `Cc1c(Br)c(=O)n(C)c(=O)n1C`, the “% Inhibition” value is -5% and the Z score was found to be 0.67.

For the compound `O=C(NCc1cnc2n1CCOC2)c1cscc1C(F)F`, the “% Inhibition” value is recorded as -4% and the Z score was found to be 0.4.

As to `CC(C)(C)C(=O)N1CC(CN2C(=O)COC2=O)C1`, the “% Inhibition” value came to 8% and the Z score is given as -1.11.

With `O=C(CN1CCN(CC=Cc2ccc(Cl)cc2)CC1)NC1CC1`, the “% Inhibition” value is -13% and the Z score is 1.2.

As for `C[C@H](C(=O)Nc1ccnn1-c1ccncc1)C1CCOCC1`, the “% Inhibition” value is on record as -17% and the Z score was 1.95.

Regarding `CN1CCN(C(=O)CCc2ccsc2)CC1`, the “% Inhibition” value is -8% and the Z score stood at 0.9.

As to `COCC(=O)N[C@@H]1CCC[C@@H](C(=O)N(C)Cc2cccnc2)CC(=O)N(C)C1`, the “% Inhibition” value worked out at 2% and the Z score is -0.3.

Turning to `O=S(=O)(Nc1ccnc2ccncc12)c1ccc2c(c1)OCCCO2`, the “% Inhibition” value was -2% and the Z score came to 0.21.

In the case of `C[C@@H](c1ccc(F)c(Cl)c1)N(C)CC(N)=O`, the “% Inhibition” value is on record as -14% and the Z score was 1.87.

As to `COC[C@@H]1CN(C(=O)c2ccncc2)C[C@H]1c1ccncc1`, the “% Inhibition” value was -13% and the Z score is 2.18.

As for `Cc1noc(C)c1CN(C)C(=O)N[C@H]1CCCN(C)C1`, the “% Inhibition” value is listed as 3% and the Z score is -0.26.

As for `CC[C@H](NC(=O)c1cn(C2CC2)c(C)cc1=O)c1c(C)noc1C`, the “% Inhibition” value is recorded as -14% and the Z score was found to be 1.74.

Regarding `c1ccc(OCCNCc2cscn2)cc1`, the “% Inhibition” value was -8% and the Z score was found to be 1.66.

Regarding `CC(=O)N1CCC(C(=O)O[C@@H](C)COc2cccc(F)c2)CC1`, the “% Inhibition” value is 0% and the Z score is -0.02.

Take `Cc1ccc(O[C@H]2CCOC[C@H]2NC(=O)C2CCS(=O)(=O)CC2)cn1`: the “% Inhibition” value is -20% and the Z score was 1.89.

As to `c1csc(-c2n[nH]c3c2CN(c2nc4ccccc4o2)CC3)c1`, the “% Inhibition” value is given as -15% and the Z score turned out to be 2.15.

On to `CCC1(CC)CN(C(=O)N[C@@H]2CCC[C@H]2c2ccccc2)CCS1(=O)=O`, for which the “% Inhibition” value is given as -6% and the Z score was 0.86.

For `Cc1ccc(CN2C(=O)[C@H]3C(C(=O)Nc4ccc(C(C)C)cc4)[C@H]4C=C[C@@]3(O4)C2C(=O)NC2CCCC(C)C2C)cc1` (some centres undefined), the “% Inhibition” value is -12% and the Z score turned out to be 1.89.

As for `FC(F)(F)c1nc(-c2ccc3[nH]ccc3c2)n[nH]1`, the “% Inhibition” value was determined as 25% and the Z score is recorded as -2.68.

Take `CCn1ncc(C(=O)n2nc(C)cc2C)c1C`: the “% Inhibition” value was found to be 35% and the Z score is -1.04.

Consider `CCN1CCCn2cc(S(=O)(=O)Nc3ccc(Cl)cc3)cc2C1=O`, for which the “% Inhibition” value is recorded as -3% and the Z score was 0.37.

As for `CC(F)(F)c1ccccc1NC(=O)NC[C@H]1CCCC12CC2`, the “% Inhibition” value was determined as 2% and the Z score is -0.35.

As for `Cc1ccc(-c2ccc(O)cn2)c2cccnc12`, the “% Inhibition” value is listed as 0% and the Z score is -0.03.

Regarding `CC[C@H](NC(=O)c1cnn(Cc2ccccc2)c1)c1nc(C)n[nH]1`, the “% Inhibition” value is recorded as -7% and the Z score is reported as 0.82.

Turning to `CCc1sc(C(=O)Nc2ccc(CC(=O)N3CCOCC3)cc2)cc1C`, the “% Inhibition” value is -13% and the Z score stood at 2.5.

For the compound `Cc1cc([C@@H](OC(=O)C2CCC(C(N)=O)CC2)C2CC2)ccc1F` (some centres undefined), the “% Inhibition” value was determined as 19% and the Z score is on record as -2.22.

Regarding `CCOC(=O)c1c(C)nc(N2CCC3(CC2)OCCO3)n1C`, the “% Inhibition” value is 4% and the Z score is given as -0.49.

Regarding `COc1ccc(C(=O)N2CCC[C@H](n3cc(C(=O)NCC(C)C)nn3)C2)cc1`, the “% Inhibition” value was 12% and the Z score was -1.53.

As to `CCC(=O)C1CCCCN1C(=O)[C@H](O)c1ccccc1` (some centres undefined), the “% Inhibition” value worked out at 3% and the Z score is reported as -0.32.

Take `Cc1cc(NC(=O)c2cn3c4c(c(N5CCN(C)CC5)c(F)cc4c2=O)OC[C@@H]3C)nn1C`: the “% Inhibition” value was determined as 3% and the Z score was -0.44.

For `COCCc1ncc(-c2c(-c3ccccc3)ncn2CCC(=O)O)cn1`, the “% Inhibition” value was found to be 4% and the Z score is -0.56.

For `Cc1ccccc1Cn1ncnc1[C@H]1CC12CCNCC2`, the “% Inhibition” value was -27% and the Z score is 2.72.

As for `CC(C)[C@H](OC(=O)CCn1nc2ccccn2c1=O)c1nccn1C`, the “% Inhibition” value stood at 1% and the Z score is -0.11.

Take `CCCc1cc(N2CCO[C@H](c3ccccc3F)C2)n2ncnc2n1`: the “% Inhibition” value is -6% and the Z score is reported as 0.63.

In the case of `Cc1ccc(C2=NO[C@@H](CN(Cc3cccc(Cl)c3)C(=O)C3CCC3)C2)cc1`, the “% Inhibition” value is -20% and the Z score stood at 3.73.

As for `Cc1noc(C)c1CC(=O)N1CCC(n2c(=O)[nH]c3ccccc3c2=O)CC1`, the “% Inhibition” value is 10% and the Z score is given as -1.24.

Turning to `CCn1cc(-c2cc(O)cc(CC[C@H]3CCCCN3)c2)c(C)n1`, the “% Inhibition” value is 3% and the Z score is -0.45.

For the compound `Cc1cc(OCC(=O)NC2CCCCCC2)nnc1C`, the “% Inhibition” value was -15% and the Z score stood at 1.4.
